Experimental data as given in PubChem BioAssay AID624417 (National Center for Advancing Translational Sciences (NCATS), 2012).
Values joined by “and” are separate entries in the source; they are usually repeats but may differ in a detail not shown here. Identical values can stand only once. In all, about 410,000 compounds went through this assay and about 6,400 (1.6%) were called active. The shares of active, inactive and inconclusive entries below differ from those in the screen. Calls come from the whole dose curve; as a rule, active = well fitted inhibition curve with a large enough effect; inconclusive = small, poorly fitted or top-dose-only effect; inactive = no such curve, though single readings can be large or run the other way. Where the call is inconclusive, the potency comes from a doubtful curve fit. Numbered stars: 1 amine (or outer) side, 2 acyl side, 3 side chain; on linkers, the order of the positions; unused ones are H or OH. Square brackets hold non-standard residues; d marks the D form. Peptide text beside a SMILES is read from it. X7 = CC[C@H](C)C(OC(=O)[C@@H](C)[C@@H](CC)N[*:1])C(=O)[*:2]; X1 = CC(N[*:1])C(=O)C(C)(C)C(=O)[*:2]; NMeY = CN[C@@H](Cc1ccc(O)cc1)C(=O)O; NMeL = CN[C@@H](CC(C)C)C(=O)O; NMeV = CN[C@H](C(=O)O)C(C)C; NMeA = CN[C@@H](C)C(=O)O

Target: Glucagon-like peptide 1 receptor (Homo sapiens) (UniProt P43220)
Assay: qHTS of GLP-1 Receptor Inverse Agonists (Inhibition Mode); note: nearly all actives have a fitted effect of over 55% in size
Conditions: HEK293 GLP-1R CRE-luciferase, luminescence, 24 h, GLP-1R form is constitutively active; series mostly up to 38.3 µM
Outline: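 Inverse agonists were sought by their lowering of basal cAMP reporter luciferase output in HEK293 cells stably carrying constitutively active human GLP-1R, after 24 h compound treatment.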
Potency is the fitted concentration of half-maximal effect; tags give direction and shape of the fitted curve.

Sequence of UniProt P43220 (P43220 whole entry, looked up): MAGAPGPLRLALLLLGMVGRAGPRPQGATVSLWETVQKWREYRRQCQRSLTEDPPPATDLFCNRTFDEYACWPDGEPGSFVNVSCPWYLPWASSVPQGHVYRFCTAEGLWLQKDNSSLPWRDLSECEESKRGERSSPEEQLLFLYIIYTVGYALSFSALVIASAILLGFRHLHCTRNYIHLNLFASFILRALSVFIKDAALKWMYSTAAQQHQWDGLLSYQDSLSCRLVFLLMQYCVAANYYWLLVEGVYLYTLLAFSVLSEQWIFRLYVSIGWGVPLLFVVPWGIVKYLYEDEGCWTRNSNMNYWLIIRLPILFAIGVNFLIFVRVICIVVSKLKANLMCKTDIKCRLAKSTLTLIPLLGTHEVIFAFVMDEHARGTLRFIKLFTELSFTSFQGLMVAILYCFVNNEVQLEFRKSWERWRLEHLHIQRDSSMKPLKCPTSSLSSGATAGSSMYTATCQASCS

SMILES	Potency
CC(C)CC(NC(=O)c1ccc(Cl)cc1)C(=O)OCC(=O)c1ccc2c(c1)NC(=O)CO2 (stereo unspecified)	inconclusive: 12.6 µM [inhibitor, partial curve, poor fit]
Cc1ccc(C(=O)NCc2ccc(Cl)cc2)cc1S(=O)(=O)N1CCCCC1	inconclusive: 2 µM [inhibitor, partial curve, poor fit]
COc1ccc(-c2ccc(OC)c([C@H]3[C@H]4C=CC[C@@H](C)[C@@H]4C(=O)N3Cc3ccccc3)c2)cc1OC	inactive
CCCOc1ccc(CC2C(=O)Nc3ccc(Br)cc32)cc1 (stereo unspecified)	inconclusive: 11.2 µM [inhibitor, single point]
CCC(C)Sc1cccc(-c2nc3ccc(C)cn3c2NCc2ccccc2)c1 (stereo unspecified)	inconclusive: 28.2 µM [inhibitor, single point] and inconclusive: 8.91 µM [inhibitor, partial curve, poor fit]
Cc1ccc(-n2ncc3c2CC(C)(C)CC3NC(=O)c2ccc[n+]([O-])c2)cc1 (stereo unspecified)	inactive
CC(C)c1ccc(NC(=O)CN2C(=O)C3(SCC(=O)N3c3ccc(F)cc3)c3ccccc32)cc1 (stereo unspecified)	inconclusive: 28.2 µM [inhibitor, single point]
CN(C)CCCN(C(=O)c1ccc2c(c1)CCCC2)c1nc2cc3c(cc2s1)OCO3	active: 2 µM
Cc1cc(Cl)ccc1OCC(=O)N(Cc1cccs1)C1CCS(=O)(=O)C1 (stereo unspecified)	inconclusive: 28.2 µM [inhibitor, single point]
Cc1cc(C)c(NS(=O)(=O)c2ccc3c(c2)oc(=O)n3C)c(C)c1	inconclusive: 12.6 µM [inhibitor, partial curve, poor fit]
O=C(Nc1nc(-c2ccccn2)cs1)c1cccc(-n2cnnn2)c1	inconclusive: 7.08 µM [inhibitor, partial curve, poor fit]
O=S(=O)(c1cccc(F)c1)N1CCCN(c2ccc(C(F)(F)F)cn2)CC1	inconclusive: 28.2 µM [inhibitor, single point]
COC(=O)[C@@]1(Cc2ccc(F)cc2)[C@H]2c3cc(C(=O)N(C)C)n(Cc4cc(F)cc5c4OCOC5)c3C[C@H]2CN1C(=O)c1ccccc1	inconclusive: 28.2 µM [inhibitor, single point]
Cc1cc(SCC(=O)NC2CCCCC2)nc2ccccc12	inconclusive: 31.6 µM [inhibitor, partial curve, poor fit]
Oc1cccc(/C=N/Nc2cc(N3CCCC3)nc(N3CCCC3)n2)c1	inconclusive: 5.62 µM [inhibitor, partial curve, poor fit]
CC(Sc1ccccc1)C(=O)NCC(c1ccco1)N1CCCCC1 (stereo unspecified)	inconclusive: 28.2 µM [inhibitor, single point]
Cc1ccc(NC(=O)c2oc3ccccc3c2NC(=O)C2CCCCC2)cc1	inconclusive: 2 µM [inhibitor, partial curve, poor fit]
Cc1cc(SCc2ccc(Cl)c(Cl)c2)nc(=O)[nH]1	inconclusive: 8.91 µM [inhibitor, partial curve, poor fit]

SMILES	Potency
CN(C)C(CNC(=O)Nc1cccc(Cl)c1)c1cccnc1 (stereo unspecified)	inactive
CCOC(=O)N1CCN(c2ccnc3cc(Cl)ccc23)CC1	inconclusive: 28.2 µM [inhibitor, single point]
CCCNC(=O)C1(C)CCCN(Cc2cccc(Oc3ccccc3)c2)C1 (stereo unspecified)	inconclusive: 28.2 µM [inhibitor, single point]
CC[C@H](C)C1OC(=O)[C@@H](C)[C@@H](CC)NC(=O)[C@H](C)N(C)C(=O)C(C)(C)C(=O)C(C)NC(=O)[C@H](Cc2ccc(OC)cc2)N(C)C(=O)[C@H](C(C)C)N(C)C(=O)CNC(=O)[C@H](CC(C)C)N(C)C(=O)CNC1=O (stereo partly specified) (cyclo(G[NMeL]G[NMeV][NMeY](Me)[X1][NMeA][X7]))	inconclusive: 0.501 µM [inhibitor, full curve, poor fit]
CCCCOc1ccc(/C=C/C(=O)OCC(=O)N2CC(=O)Nc3ccccc32)cc1OCC	inconclusive: 10 µM [inhibitor, partial curve, poor fit]
COC(=O)C1CCN(C2=C(NS(=O)(=O)c3ccc(Cl)cc3)C(=O)c3ccccc3C2=O)CC1	inconclusive: 7.94 µM [inhibitor, partial curve, poor fit]
CC1(C(=O)NCc2ccc3c(c2)OCO3)CCN1CCc1ccccc1 (stereo unspecified)	inconclusive: 11.2 µM [inhibitor, partial curve, poor fit]
Clc1ccccc1CSc1snnc1-c1ccccc1	inconclusive: 14.1 µM [inhibitor, single point]
c1ccc(CCn2nnnc2CN2CCc3ccccc32)cc1	inconclusive: 7.08 µM [inhibitor, partial curve]
COc1cc(OC)c(NC(=O)CCc2nc(C3=CCN(Cc4cccc(Cl)c4)CC3)no2)cc1Cl	inconclusive: 28.2 µM [inhibitor, single point]
Cc1cccc(N2CCN(C(=O)CS(=O)(=O)Cc3nc(-c4ccccc4F)oc3C)CC2C)c1 (stereo unspecified)	inconclusive: 28.2 µM [inhibitor, single point]
COc1cccc(CNc2nc3cc(-c4cccc(C(F)(F)F)c4)sc3c(=O)n2C)c1	inactive
O=C(CSc1nc2ccccc2c(=O)n1CC1CCCO1)Nc1ccccc1Cl (stereo unspecified)	inconclusive: 28.2 µM [inhibitor, single point]
CC(C)c1ccc(S(=O)(=O)NCc2nc3cccnc3n2Cc2ccc(F)cc2)cc1	inactive
COC(=O)c1cc(NC(=S)NCc2ccc(Cl)cc2)cc(C(=O)OC)c1	inconclusive: 22.4 µM [inhibitor, single point]
Cc1cccc(Nc2nnc(SCC(=O)c3ccc(O)cc3O)s2)c1	inconclusive: 10 µM [inhibitor, partial curve]
O=S(=O)(Nc1ccc(OC(F)(F)F)cc1)c1ccc(N2CCCCS2(=O)=O)cc1	inconclusive: 7.08 µM [inhibitor, partial curve, poor fit]
Cc1cc(C(=O)N2CCCC2(C)C(=O)O)c(C)o1 (stereo unspecified)	inactive
